From PMC12820563
The other results are listed elsewhere or left out. The list includes weakly bound sequences.

The sequences below were run against T1, MBP-FoxP3dN (UniProt Q99JB6) (assay: PD-seq (MBP pull-down with sequencing)). Conditions: 20 mM Tris-HCl pH 7.5, 100 mM NaCl, 1.5 mM MgCl2, 0.4 uM protein, 0.1 uM dsDNA library, 30 min, room temperature, amylose pull-down; high values mean tight binding; double strand, one strand shown.
T1 sequence: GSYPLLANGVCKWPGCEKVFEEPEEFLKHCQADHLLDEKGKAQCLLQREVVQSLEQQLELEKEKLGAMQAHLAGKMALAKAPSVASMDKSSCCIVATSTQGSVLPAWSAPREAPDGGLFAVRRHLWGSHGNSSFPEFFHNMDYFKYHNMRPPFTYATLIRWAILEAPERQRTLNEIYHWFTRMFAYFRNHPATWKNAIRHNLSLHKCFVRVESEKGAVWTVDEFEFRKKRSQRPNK

| Sequence | binding signal (RPM ratio (pull-down/input)) |
| --- | --- |
| GATGATTGTTCTCCCAGCTGATGAATTAAACAAGTCGAGTAAACAAATTTTCCTAATCTTTCTGTTCAAGCGCCATCTAC | 0.682 |
| GATGATTGTTCTCCCAGCTGATGAATTACAATAGTCGAGTAAACAAATTTTCCTAATCTTTCTGTTCAAGCGCCATCTAC | 0.704 |
| GATGATTGTTCTCCCAGCTGATGAATTATTTCTGTCGAGTAAACAAATTTTCCTAATCTTTCTGTTCAAGCGCCATCTAC | 0.335 |
| GATGATTGTTCTCCCAGCTGATGAATTTTTCGGATCGAGTAAACAAATTTTCCTAATCTTTCTGTTCAAGCGCCATCTAC | 0.156 |
| GATGATTGTTCTCCCAGCTGATGAATTCGGCGAATCGAGTAAACAAATTTTCCTAATCTTTCTGTTCAAGCGCCATCTAC | 0.281 |
| GATGATTGTTCTCCCAGCTGATGAATTTACTGGGTCGAGTAAACAAATTTTCCTAATCTTTCTGTTCAAGCGCCATCTAC | 0.463 |
| GATGATTGTTCTCCCAGCTGATGAATTATGAAACTCGAGTAAACAAATTTTCCTAATCTTTCTGTTCAAGCGCCATCTAC | 0.828 |
| GATGATTGTTCTCCCAGCTGATGAATTGCGTCCGTCGAGTAAACAAATTTTCCTAATCTTTCTGTTCAAGCGCCATCTAC | 0.931 |
| GATGATTGTTCTCCCAGCTGATGAATTGTCGTGTTCGAGTAAACAAATTTTCCTAATCTTTCTGTTCAAGCGCCATCTAC | 0.915 |
| GATGATTGTTCTCCCAGCTGATGAATTTTGAAGATCGAGTAAACAAATTTTCCTAATCTTTCTGTTCAAGCGCCATCTAC | 0.254 |
| GATGATTGTTCTCCCAGCTGATGAATTATGGACGTCGAGTAAACAAATTTTCCTAATCTTTCTGTTCAAGCGCCATCTAC | 0.392 |
| GATGATTGTTCTCCCAGCTGATGAATTCTTCTTCTCGAGTAAACAAATTTTCCTAATCTTTCTGTTCAAGCGCCATCTAC | 0.275 |
| GATGATTGTTCTCCCAGCTGATGAATTACGTGCGTCGAGTAAACAAATTTTCCTAATCTTTCTGTTCAAGCGCCATCTAC | 0.843 |
| GATGATTGTTCTCCCAGCTGATGAATTTACGCTATCGAGTAAACAAATTTTCCTAATCTTTCTGTTCAAGCGCCATCTAC | 1.1 |
| GATGATTGTTCTCCCAGCTGATGAATTATGCACGTCGAGTAAACAAATTTTCCTAATCTTTCTGTTCAAGCGCCATCTAC | 3.08 |
| GATGATTGTTCTCCCAGCTGATGAATTAGAGTCATCGAGTAAACAAATTTTCCTAATCTTTCTGTTCAAGCGCCATCTAC | 0.569 |
| GATGATTGTTCTCCCAGCTGATGAATTTAGTGCATCGAGTAAACAAATTTTCCTAATCTTTCTGTTCAAGCGCCATCTAC | 1.99 |
| GATGATTGTTCTCCCAGCTGATGAATTCGACCGATCGAGTAAACAAATTTTCCTAATCTTTCTGTTCAAGCGCCATCTAC | 0.227 |
| GATGATTGTTCTCCCAGCTGATGAATTTTCCGATTCGAGTAAACAAATTTTCCTAATCTTTCTGTTCAAGCGCCATCTAC | 0.245 |
| GATGATTGTTCTCCCAGCTGATGAATTACGATGTTCGAGTAAACAAATTTTCCTAATCTTTCTGTTCAAGCGCCATCTAC | 1.56 |
| GATGATTGTTCTCCCAGCTGATGAATTTGATGGTTCGAGTAAACAAATTTTCCTAATCTTTCTGTTCAAGCGCCATCTAC | 4.3 |

| Sequence | binding signal (RPM ratio (pull-down/input)) |
| --- | --- |
| GATGATTGTTCTCCCAGCTGATGAATTCACTTTCTCGAGTAAACAAATTTTCCTAATCTTTCTGTTCAAGCGCCATCTAC | 0.392 |
| GATGATTGTTCTCCCAGCTGATGAATTTCGGTTCTCGAGTAAACAAATTTTCCTAATCTTTCTGTTCAAGCGCCATCTAC | 0.886 |
| GATGATTGTTCTCCCAGCTGATGAATTAACAATTTCGAGTAAACAAATTTTCCTAATCTTTCTGTTCAAGCGCCATCTAC | 0.559 |
| GATGATTGTTCTCCCAGCTGATGAATTACTGATATCGAGTAAACAAATTTTCCTAATCTTTCTGTTCAAGCGCCATCTAC | 0.445 |
| GATGATTGTTCTCCCAGCTGATGAATTGGGCCTCTCGAGTAAACAAATTTTCCTAATCTTTCTGTTCAAGCGCCATCTAC | 4.79 |
| GATGATTGTTCTCCCAGCTGATGAATTGCGGAATTCGAGTAAACAAATTTTCCTAATCTTTCTGTTCAAGCGCCATCTAC | 1.24 |
| GATGATTGTTCTCCCAGCTGATGAATTTATATACTCGAGTAAACAAATTTTCCTAATCTTTCTGTTCAAGCGCCATCTAC | 3.39 |
| GATGATTGTTCTCCCAGCTGATGAATTCACAAATTCGAGTAAACAAATTTTCCTAATCTTTCTGTTCAAGCGCCATCTAC | 0.351 |
| GATGATTGTTCTCCCAGCTGATGAATTTTGTTTATCGAGTAAACAAATTTTCCTAATCTTTCTGTTCAAGCGCCATCTAC | 7.19 |
| GATGATTGTTCTCCCAGCTGATGAATTGGCTCTTTCGAGTAAACAAATTTTCCTAATCTTTCTGTTCAAGCGCCATCTAC | 0.389 |
| GATGATTGTTCTCCCAGCTGATGAATTTTTGGTTTCGAGTAAACAAATTTTCCTAATCTTTCTGTTCAAGCGCCATCTAC | 0.401 |
| GATGATTGTTCTCCCAGCTGATGAATTGGAAGTATCGAGTAAACAAATTTTCCTAATCTTTCTGTTCAAGCGCCATCTAC | 0.404 |
| GATGATTGTTCTCCCAGCTGATGAATTCTAGTGATCGAGTAAACAAATTTTCCTAATCTTTCTGTTCAAGCGCCATCTAC | 0.495 |
| GATGATTGTTCTCCCAGCTGATGAATTTGGAAGCTCGAGTAAACAAATTTTCCTAATCTTTCTGTTCAAGCGCCATCTAC | 0.302 |
| GATGATTGTTCTCCCAGCTGATGAATTACTGTCGTCGAGTAAACAAATTTTCCTAATCTTTCTGTTCAAGCGCCATCTAC | 0.462 |
| GATGATTGTTCTCCCAGCTGATGAATTTAAGCATTCGAGTAAACAAATTTTCCTAATCTTTCTGTTCAAGCGCCATCTAC | 5.65 |
| GATGATTGTTCTCCCAGCTGATGAATTTCTAGCATCGAGTAAACAAATTTTCCTAATCTTTCTGTTCAAGCGCCATCTAC | 0.736 |
| GATGATTGTTCTCCCAGCTGATGAATTCGGTAGCTCGAGTAAACAAATTTTCCTAATCTTTCTGTTCAAGCGCCATCTAC | 0.643 |
| GATGATTGTTCTCCCAGCTGATGAATTGAGTAGCTCGAGTAAACAAATTTTCCTAATCTTTCTGTTCAAGCGCCATCTAC | 0.581 |
| GATGATTGTTCTCCCAGCTGATGAATTTTACTGGTCGAGTAAACAAATTTTCCTAATCTTTCTGTTCAAGCGCCATCTAC | 0.331 |
| GATGATTGTTCTCCCAGCTGATGAATTGTCTTAGTCGAGTAAACAAATTTTCCTAATCTTTCTGTTCAAGCGCCATCTAC | 0.483 |

| Sequence | binding signal (RPM ratio (pull-down/input)) |
| --- | --- |
| GATGATTGTTCTCCCAGCTGATGAATTTGAACGGTCGAGTAAACAAATTTTCCTAATCTTTCTGTTCAAGCGCCATCTAC | 0.252 |
| GATGATTGTTCTCCCAGCTGATGAATTATTTACTTCGAGTAAACAAATTTTCCTAATCTTTCTGTTCAAGCGCCATCTAC | 3.12 |
| GATGATTGTTCTCCCAGCTGATGAATTGAATGGCTCGAGTAAACAAATTTTCCTAATCTTTCTGTTCAAGCGCCATCTAC | 0.431 |
| GATGATTGTTCTCCCAGCTGATGAATTCTTAATTTCGAGTAAACAAATTTTCCTAATCTTTCTGTTCAAGCGCCATCTAC | 0.3 |
| GATGATTGTTCTCCCAGCTGATGAATTAGACTGATCGAGTAAACAAATTTTCCTAATCTTTCTGTTCAAGCGCCATCTAC | 0.303 |
| GATGATTGTTCTCCCAGCTGATGAATTTTCAGCCTCGAGTAAACAAATTTTCCTAATCTTTCTGTTCAAGCGCCATCTAC | 0.34 |
| GATGATTGTTCTCCCAGCTGATGAATTTAATTTTTCGAGTAAACAAATTTTCCTAATCTTTCTGTTCAAGCGCCATCTAC | 1.47 |
| GATGATTGTTCTCCCAGCTGATGAATTCGGCTCTTCGAGTAAACAAATTTTCCTAATCTTTCTGTTCAAGCGCCATCTAC | 0.488 |
| GATGATTGTTCTCCCAGCTGATGAATTGGGTATATCGAGTAAACAAATTTTCCTAATCTTTCTGTTCAAGCGCCATCTAC | 1.17 |
| GATGATTGTTCTCCCAGCTGATGAATTTATCAGCTCGAGTAAACAAATTTTCCTAATCTTTCTGTTCAAGCGCCATCTAC | 0.714 |
| GATGATTGTTCTCCCAGCTGATGAATTAGCGTTTTCGAGTAAACAAATTTTCCTAATCTTTCTGTTCAAGCGCCATCTAC | 1.5 |
| GATGATTGTTCTCCCAGCTGATGAATTGGTAGCGTCGAGTAAACAAATTTTCCTAATCTTTCTGTTCAAGCGCCATCTAC | 0.977 |
| GATGATTGTTCTCCCAGCTGATGAATTGTAGTAGTCGAGTAAACAAATTTTCCTAATCTTTCTGTTCAAGCGCCATCTAC | 0.954 |
| GATGATTGTTCTCCCAGCTGATGAATTGTGTTGGTCGAGTAAACAAATTTTCCTAATCTTTCTGTTCAAGCGCCATCTAC | 6.68 |
| GATGATTGTTCTCCCAGCTGATGAATTCTATGGGTCGAGTAAACAAATTTTCCTAATCTTTCTGTTCAAGCGCCATCTAC | 0.49 |
| GATGATTGTTCTCCCAGCTGATGAATTCGTTAAGTCGAGTAAACAAATTTTCCTAATCTTTCTGTTCAAGCGCCATCTAC | 0.33 |
| GATGATTGTTCTCCCAGCTGATGAATTGCGGTGATCGAGTAAACAAATTTTCCTAATCTTTCTGTTCAAGCGCCATCTAC | 0.978 |
| GATGATTGTTCTCCCAGCTGATGAATTTCGGGACTCGAGTAAACAAATTTTCCTAATCTTTCTGTTCAAGCGCCATCTAC | 0.358 |
| GATGATTGTTCTCCCAGCTGATGAATTCCGGGACTCGAGTAAACAAATTTTCCTAATCTTTCTGTTCAAGCGCCATCTAC | 0.306 |
| GATGATTGTTCTCCCAGCTGATGAATTCAATCCGTCGAGTAAACAAATTTTCCTAATCTTTCTGTTCAAGCGCCATCTAC | 0.332 |
| GATGATTGTTCTCCCAGCTGATGAATTCCATCGTTCGAGTAAACAAATTTTCCTAATCTTTCTGTTCAAGCGCCATCTAC | 0.602 |
